The results in this text go back to article PMC4344513.

By UniProt entry, the sequences of proteins in these tests, tags left out.
UniProt P49005: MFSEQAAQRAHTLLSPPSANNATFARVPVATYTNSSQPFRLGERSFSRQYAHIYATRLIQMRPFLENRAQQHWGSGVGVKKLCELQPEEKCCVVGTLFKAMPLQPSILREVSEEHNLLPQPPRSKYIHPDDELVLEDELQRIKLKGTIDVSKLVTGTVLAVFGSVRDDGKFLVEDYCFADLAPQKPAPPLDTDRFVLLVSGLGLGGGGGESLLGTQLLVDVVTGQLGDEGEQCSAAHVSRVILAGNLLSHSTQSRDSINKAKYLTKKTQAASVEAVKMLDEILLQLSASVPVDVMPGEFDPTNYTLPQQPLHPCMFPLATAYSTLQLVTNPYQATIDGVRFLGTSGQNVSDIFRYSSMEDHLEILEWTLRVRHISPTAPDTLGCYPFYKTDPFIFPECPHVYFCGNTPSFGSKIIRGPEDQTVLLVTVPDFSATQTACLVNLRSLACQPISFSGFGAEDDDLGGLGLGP

Experiment [1] deals with T1, His-GST-Polη_(393–511) (human) (UniProt Q9Y253).
T1 sequence: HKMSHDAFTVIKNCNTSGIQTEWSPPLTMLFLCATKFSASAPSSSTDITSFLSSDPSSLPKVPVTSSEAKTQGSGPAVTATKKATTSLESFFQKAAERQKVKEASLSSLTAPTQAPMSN
Description: pull-down; His-GST fusions (125 μg) immobilised on Dynabeads His-Tag, mixed with 35 μl POLD2 TnT reaction in 0.75x Buffer 1 (3.25-mM NaPO4 pH 7.4, 70-mM NaCl, 0.01% Tween20), 1.5 h, 4°C; only the target purified.

In experiment [2] the target is T2, His-GST-Polη_(393–511)(F1*) (human) (UniProt Q9Y253).
T2 sequence: T1 sequence with F91A, F92A
The experiment is described as above.

Substitutions are numbered along the chain they refer to. Results are given in words; binding and its absence hold for the method and conditions named. Binding seen in cells or lysates may run through a third protein. Some entries that bind do so weakly or less than the wild type. Sequences can lack the tags named with a protein.

With “in vitro translated POLD2 (from UniProt P49005 1-469)”, the values for the binding entry in experiment [1] and in experiment [2] were “binds” and “no binding”, respectively.
